Laboratory results as given in the supplement of paper PMC11417369.
± gives the standard deviation of the averaged measurements. This is one part of the list.

Each sequence was assayed on PfAP2-EXP AP2 domain (GST-tagged) (assay: gcPBM binding intensity (ln(normalized median fluorescence intensity)); higher = stronger DNA binding).
How it was run: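 An Agilent 4 × 180k array carrying primer-extended double-stranded 36-bp intergenic genomic probes and negative controls received GST-tagged P. falciparum DNA-binding domains expressed in E. coli, about 25 μg on average, for 1 h. The binding buffer contained 1× PBS, 1% milk, 0.2 mg/ml BSA, 0.5% salmon testes DNA and 0.03% Triton X-100. Binding intensity is the top Masliner-normalised natural-log median intensity across replicate spots of either probe orientation, read after Alexa488 anti-GST antibody staining and a 488 nm scan.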

| Sequence | gcPBM binding intensity (ln) |
| --- | --- |
| TTTATTTATGTAGATACACACCCATGTTATATGGAG [CACACA_site9144] | 8.57 ± 0.48 |
| AGCAAAAATTAAATAAATAAATATATATATATATAT [TGCATGCA_negctrl_site449] | 10.2 ± 0.63 |
| ATATTAATAATATATACACACATAAGTATTGTATAT [CACACA_site4095] | 8.2 ± 0.26 |
| AATGATGTCATAGGGGGTACACATAAATGTGAATGT [XGTACX_site6745] | 9.31 ± 0.33 |
| GCAACATTCTAAGACACACACACACCCATATATATA [CACACA_site1053] | 8.77 ± 0.42 |
| AATAATATATATATATATATATATAGATATGTATAT [GTGCAC_negctrl_site653] | 8.37 ± 0.23 |
| ATGTTAACTAAATGTACACACCTATGTTGATGTAAC [CACACA_site5073] | 8.53 ± 0.33 |
| AAAGTTTAAATGAGAAGTACAAATTTTTGTTTTTAT [XGTACX_site1844] | 8.41 ± 0.53 |
| TATATATATAAAATATGTACATAAAATTATTTATTT [XGTACX_site7666] | 8.61 ± 0.26 |
| ATATAAAGTATGTTAGTGCACTTTTTTTTTTTTTTT [GTGCAC_site9419] | 9.02 ± 0.16 |
| TCATAGGAGAACTTTTGTACAGATTTTTCTTTTTTT [XGTACX_site2853] | 8.22 ± 0.4 |
| GTAATACACATATAATGTACTCATAAATATATTTAT [XGTACX_site4041] | 8.69 ± 0.17 |
| ACATACATACCCCCACGTACGTACCGAAACACCACC [XGTACX_site1982] | 9.95 ± 0.38 |
| TTTCTATATCTTTCAACACACAAATTTTTTTTTCCA [CACACA_site108] | 8.56 ± 0.46 |
| AATATAAGTGTACATACACACTTTACAATATCATAT [CACACA_site5634] | 8.5 ± 0.34 |
| AATTTTATATATATATGTACATATTTATATGCTTAT [XGTACX_site8180] | 8.6 ± 0.35 |
| CAAAGAACTTATAGGGTGCTTTACTTATAAGTAAAT [GTGCAC_site9579] | 8.51 ± 0.28 |
| GTGGTTGTAATGGTGGTGCATATTGTATATTATGTT | 9.26 |
| ATTATTTTATATACATGTACATATTATATATAAAAG [XGTACX_site2735] | 8.55 ± 0.39 |
| TATAAAATAAAAAATATATATATGTATATATATATA [TGCATGCA_negctrl_site163] | 9.86 ± 0.16 |
| TATAAGTGCTCAACGGTGCATTTATAGAAGTTAAAC | 9.07 ± 0.27 |
| TTAGATATTAATATATGTACATATTAATATATTTAC [XGTACX_site7119] | 8.26 ± 0.4 |
| TATTTATACACGCACACACACTTATACATTTATATA [CACACA_site7543] | 8.96 ± 0.42 |

| Sequence | gcPBM binding intensity (ln) |
| --- | --- |
| TTTCTTTTTTAGAGGTGTACACGTAGGCCTCTTGGA [XGTACX_site4760] | 8.75 ± 0.31 |
| CACACTTTTTAAATTAACGCATTTCAAAAAAAATAT [CACACA_negctrl_site84] | 8.35 ± 0.33 |
| TAAATGTAAAACGAAATGCACACTATGGAAAATATA [CACACA_site724] | 9.11 ± 0.41 |
| TATAATTTTTACTGGGTGCACTCGATATTTTAAATA | 9.64 ± 0.98 |
| TATCCATATTTGTTCACACACACACGGATTTATATA [CACACA_site7649] | 8.78 ± 0.52 |
| TTATTTCTAATTCGTTGTACAATATATAATATATAT [XGTACX_site5861] | 8.81 ± 0.42 |
| ATTATTATTTTACGTAGTACATATAATAAATATTTA [XGTACX_site8934] | 8.27 ± 0.43 |
| GGAATATTATTTCAATGTACATTTTGAGATTAGAAT [XGTACX_site8187] | 8.87 ± 0.74 |
| TTGATAGACACATGCACACATGCAATACTTTATTCA [CACACA_site3000] | 8.79 ± 0.099 |
| TAGGTGTTAAAAAATACACACACAAAAAAAAAAAAA [CACACA_site7927] | 8.32 ± 0.53 |
| CCTTTAAGCAAAAACACACACACATATATATATATA [CACACA_site348] | 10.1 ± 0.5 |
| ACATTTTTGGTTTTAGTGCAATATGAATTATTTTAT | 8.635 ± 0.049 |
| TCTTCCATTTTTATTACACACATAAATATGAAATCG [CACACA_site3471] | 8.74 ± 0.51 |
| AGTTTTATATTTCTGAGTACTTATGAATCTAGCTCG [XGTACX_site4330] | 8.62 ± 0.4 |
| ATTTTTTCTAAAAGTTGTACATTAAAACGTGTTCAC [XGTACX_site4803] | 8.45 ± 0.33 |
| TTGTAAAAAATTCATACACACGTCTTATTTTTAAGA [CACACA_site8390] | 8.25 ± 0.37 |
| TTTTTTTTTTTTTTTACACACATTTTAATAATTTTA [CACACA_site1492] | 8.2 ± 0.44 |
| TTTATATAATATGAATGTACTTATATATTTATAGAC [XGTACX_site3261] | 8.49 ± 0.13 |
| AAGACTCTTTGTCCTTGTACATATATTTTTATGTTT [XGTACX_site3711] | 8.55 ± 0.42 |
| TATTTATTCTCCAACACACACACATATATATATATA [CACACA_site2894] | 10.1 ± 0.43 |
| TTATAGGTGCTTCGTAGTACATAAAAATAATATATA [XGTACX_site6979] | 8.54 ± 0.33 |
| AAAATGAATTTAAAATGTACTTTTTCTAAAGAGTAA [XGTACX_site2337] | 8.07 ± 0.34 |
| AAAAATAAAAGGTGTGCACACAAAAATATATATATA [CACACA_site8507] | 9.74 |

| Sequence | gcPBM binding intensity (ln) |
| --- | --- |
| TATTGTTATTAAAAATGTACATATAAATTTCTTATT [XGTACX_site1409] | 8.32 ± 0.33 |
| GTATGATGCATAAGAGTGCATAAGGATATTTCTTCA | 8.81 ± 0.085 |
| AATTTAAAAAATAACAGTACATAAAATATATACATA [XGTACX_site7917] | 8.25 ± 0.3 |
| TGTGTATATTATATGTGTACATATCAATGTTTATAT [XGTACX_site1885] | 8.61 ± 0.26 |
| TAATATATAACGTGCACACACACATCTACGTATGAA [CACACA_site5080] | 9.025 ± 0.064 |
| TAATATTAAATAAATAAAATATATAATATATATATA [XGTACX_negctrl_site49] | 9.31 ± 0.23 |
| TGGCATTAAAATTTAGTGCATATATCTTAGCATGGG | 8.91 ± 0.69 |
| TATATATTCATATGTTGTACATAAATACAAATAAGA [XGTACX_site5602] | 8.47 ± 0.33 |
| TGCAGTCTGGAGAAGAGTACACAGTATCTGGTAACA [XGTACX_site2037] | 8.49 ± 0.16 |
| AAAGGTAAATGTAAATAAATAAATAATAAATATATA [GTGCAC_negctrl_site681] | 8.48 ± 0.39 |
| AACAGAATAATACTAAATGAACGATTTCTCTTTATG [GTGCAC_negctrl_site376] | 8.2 ± 0.52 |
| ATTTTTTTTTTTTTTTTTTATATGCTCTCCATGAGA [CACACA_negctrl_site1225] | 8.19 ± 0.47 |
| TAACTTTTATCCTTAATTCATATATAAGATTAAATC [CACACA_negctrl_site669] | 8.33 ± 0.34 |
| ATTAATATGAATAAAACACACATATATAATTTGTAA [CACACA_site1929] | 8.37 ± 0.35 |
| AAAAAAAAAAAGAAATGTACATGAATATTTTAAATG [XGTACX_site4069] | 8.56 ± 0.4 |
| AAAAAGGAGAAACACACACACACACCCATATATATA [CACACA_site905] | 8.8 ± 0.32 |
| CATGCTACATCTTATTGTACTTATCTAATGTTAGTA [XGTACX_site1863] | 8.62 ± 0.38 |
| AGGCAATATTATATATATATATATATATATATATAT [CACACA_negctrl_site826] | 9.88 ± 0.54 |
| TCTTTTTACACCTCTTACATAAAACAAAATAAGGGG [XGTACX_negctrl_site12] | 9.1 ± 0.13 |
| TATACATGTTATGTACATCTAATCACACGTGCAATA [CACACA_negctrl_site1267] | 8.86 ± 0.26 |
| ATATATATAAAACACACACACACATGGTTTAAAACT [CACACA_site4219] | 8.77 ± 0.38 |
| TGTATGTTTGGGTGCACACATAAATATTATATATAG [CACACA_site3397] | 9.83 ± 1.3 |
| TTGTAAATTTACATTTGTACATAAATATATTAATAT [XGTACX_site3969] | 8.67 ± 0.45 |

| Sequence | gcPBM binding intensity (ln) |
| --- | --- |
| ATGAATCCTTAATATGAACACACAAATATATTACAC [CACACA_site7943] | 8.62 ± 0.39 |
| TCCTTATTTATATAATGTACTTTTTTTTTTCATTTT [XGTACX_site4275] | 8.71 ± 0.46 |
| TTTTTTATTTATCCTATATATTACTAAATGAAGAAC [GTGCAC_negctrl_site333] | 8.43 ± 0.25 |
| TTATTTCAAAGTAAATCAGTAAATATTTGTTTTCTT [CACACA_negctrl_site1572] | 8.21 ± 0.47 |
| TACAAGTATAAATAAGCACACATGTGGATATGTACA [CACACA_site4229] | 8.96 ± 0.36 |
| AAAATATAAAATAATGCACACATAAACAAAAAATCA [CACACA_site8382] | 8.77 ± 0.26 |
| GATAAAATAGGACCATATTCTTTAAAACGATAAAAT [XGTACX_negctrl_site405] | 8.56 ± 0.39 |
| ATATATATATATTTATGTACATATACATAATGTATA [XGTACX_site6387] | 9.74 ± 0.28 |
| TAAAGTTAAAAATTATGTACATATATATTGTATATT [XGTACX_site5528] | 8.24 ± 0.014 |
| TAAGAAGTATTTTCCTGTACATATTTTATATGTATG [XGTACX_site4658] | 8.28 ± 0.26 |
| TTATTTTATATATCACGTACATAGTTGTCTTCTTTT [XGTACX_site2906] | 8.73 ± 0.44 |
| ATATATTTATAATAGGTGCATATGTTTTATTTTTCC [GTGCAC_site9849] | 8.79 ± 0.19 |
| TATATATATTAGTGTGCACACTTTTTATTTTTATCC [CACACA_site8506] | 9.11 ± 0.042 |
| TGTTCTATTCTATTATTATTTACAAATTATAAATAA [GTGCAC_negctrl_site232] | 8.6 ± 0.4 |
| ATATGTGTGTGTATTTGTACCCAATTTTTATATATA [XGTACX_site4948] | 9.19 ± 0.74 |
| AAAAAAAAAAAAAAAAAAAAAATACATATATATATA [CACACA_negctrl_site290] | 9.79 ± 0.18 |
| AAAGAATTATATAAGGTGCACGAATGTTTCTTTAAT | 9.115 ± 0.064 |
| TGTAATAAATAGTACACACACACATATATATATATT [CACACA_site1388] | 8.73 ± 0.38 |
| AGATATGTTTTTAATTGTACATAAATACACAAATAT [XGTACX_site5981] | 8.53 ± 0.33 |
| TATAAATATATTTATACACACATTAGTGTATACATG [CACACA_site7397] | 8.5 ± 0.44 |
